The structures appear in SMILES notation. The list shows a part of the results.

The subject of the assay is HepG2. In words: cytotoxicity call (relative viability < 0.9). The note with it: 10 µM.
With `C[C@@H]1CCCCO[C@H](CN(C)Cc2ccc(C(=O)O)cc2)[C@H](C)CN([C@H](C)CO)C(=O)c2cc(NC(=O)Nc3ccc(C(F)(F)F)cc3)ccc2O1`, the cytotoxicity call is “inactive”.
To `COc1ccc(NC(=O)Nc2ccc3c(c2)C(=O)N([C@@H](C)CO)C[C@H](C)[C@H](CN(C)C(=O)C2CCCCC2)OCCCC[C@H](C)O3)cc1` belongs “active”; to `COCCCNC(=O)[C@@]1(Sc2ccc(C)cc2)CC(=O)N(Cc2cc(C(F)(F)F)cc(C(F)(F)F)c2)[C@@H]1c1ccc(CO)cc1`, “inactive”; to `COc1ccc(CN(C)C[C@H]2Oc3ccc(NS(=O)(=O)c4cn(C)cn4)cc3C(=O)N([C@@H](C)CO)C[C@@H]2C)cc1`, “inactive”.
Regarding `CCS(=O)(=O)N1C[C@]2(CN(C2)S(=O)(=O)c2cn(cn2)C)c2c(n(c3cc(ccc23)OC)C)[C@@H]1CO`, the cytotoxicity call was “inactive”.
With `CCCC#Cc1ccc2c(c1)O[C@@H](CN(C)C(=O)c1cnccn1)[C@H](C)CN([C@@H](C)CO)S2(=O)=O`, the cytotoxicity call is “inactive”.
With `CS(=O)(=O)Nc1ccc2c(c1)[C@@H]1C[C@@H](CC(=O)NCc3ccc(-c4ccccc4)cc3)O[C@H](CO)[C@@H]1O2` the entry was “inactive”.
On to `COc1ccc(S(=O)(=O)Nc2ccc3c(c2)C(=O)N([C@@H](C)CO)C[C@H](C)[C@@H](CN(C)Cc2ccncc2)O3)cc1`, for which the cytotoxicity call is “inactive”.
`Cc1ccc(S(=O)(=O)Nc2ccc3c(c2)CC(=O)N([C@H](C)CO)C[C@@H](C)[C@@H](CN(C)Cc2ccc(-c4ccccc4)cc2)O3)cc1`: the cytotoxicity call was “active”.
As to `Cc1cc(C)c(NC(=O)CN(CC(=O)O)CC(=O)O)c(C)c1Br`, the cytotoxicity call was “inactive”.
For `C[C@@H]1CN([C@H](C)CO)C(=O)c2cc(NC(=O)Nc3ccc4c(c3)OCO4)ccc2O[C@H]1CN(C)C(=O)Nc1cccc2ccccc12`, the cytotoxicity call was “inactive”.
To `C[C@@H]1CN([C@@H](C)CO)C(=O)Cc2cc(NC(=O)c3ccncc3)ccc2O[C@H]1CN(C)S(C)(=O)=O` belongs “inactive”; to `C#CCCCCCCCCCCCC(O)CC(O)CO` (stereo unspecified), “inactive”; to `[O-][NH2+]N1CCCC1`, “inactive”.
`C[C@@H]1CN([C@@H](C)CO)C(=O)c2cc(NS(=O)(=O)c3ccccc3)ccc2O[C@@H](C)CCCCO[C@@H]1CN(C)Cc1ccc(C(=O)O)cc1`: the cytotoxicity call is “inactive”.
As for `COc1ccc(-c2cc(=O)c3c(O)cc(OC)c(OC)c3o2)c(OC)c1`, the cytotoxicity call is “inactive”.
Turning to `CC(=O)N[C@H]1CSSC[C@@H](C(N)=O)NC(=O)[C@H](C(C)C)NC(=O)[C@H](C)NC(=O)[C@H](Cc2cnc[nH]2)NC1=O`, the cytotoxicity call is “inactive”.
For `CC(C)NC(=O)N(C)C[C@@H]1Oc2ccc(NC(=O)CCC(F)(F)F)cc2C(=O)N([C@H](C)CO)C[C@@H]1C`, the cytotoxicity call is “inactive”.
Turning to `C[C@@H]1CCCCO[C@@H](CN(C)C(=O)Nc2ccc(F)cc2)[C@@H](C)CN([C@@H](C)CO)C(=O)c2cc(NC(=O)Cc3ccccc3)ccc2O1`, the cytotoxicity call is “inactive”.
Consider `Cc1ccc(S(=O)(=O)Nc2cccc3c2O[C@@H](CN(C)S(=O)(=O)c2cn(C)cn2)[C@@H](C)CN([C@H](C)CO)C3=O)cc1`, for which the cytotoxicity call was “inactive”.
With `C[C@@H]1CN([C@H](C)CO)C(=O)c2cccc(NC(=O)c3cnccn3)c2O[C@@H]1CN(C)S(=O)(=O)c1ccccc1`, the cytotoxicity call was “inactive”.
On to `O=c1cc(-c2ccccc2O)oc2cc(O)ccc12`, for which the cytotoxicity call is “inactive”.
In the case of `CC/C(=C\c1ccccc1)C(=O)O`, the cytotoxicity call was “inactive”.
With `COc1cccc(NC(=O)C[C@@H]2CC[C@@H]3[C@H](COc4ccc(NC(=O)C5CCOCC5)cc4C(=O)N3C)O2)c1`, the cytotoxicity call was “inactive”.
In the case of `C[C@@H]1CCCCO[C@@H](CN(C)Cc2ccc(Cl)c(Cl)c2)[C@H](C)CN([C@H](C)CO)C(=O)c2cc(NC(=O)Cc3ccccc3)ccc2O1`, the cytotoxicity call is “inactive”.
Regarding `COc1ccccc1CNC(=O)C[C@H]1CC[C@H]2[C@@H](COC[C@@H](O)CN2C(=O)Nc2ccc(F)cc2)O1`, the cytotoxicity call is “inactive”.
For `Cc1noc(C)c1S(=O)(=O)N(C)C[C@@H]1OCCCC[C@H](C)Oc2ccc(N(C)C)cc2C(=O)N([C@H](C)CO)C[C@H]1C`, the cytotoxicity call was “inactive”.
Consider `Cc1ccc(S(=O)(=O)N(C)C[C@H]2Oc3c(NC(=O)NC(C)C)cccc3C(=O)N([C@@H](C)CO)C[C@H]2C)cc1`, for which the cytotoxicity call is “inactive”.
As for `C[C@H]1CN([C@@H](C)CO)C(=O)c2cc(/C=C/c3ccccc3)cnc2O[C@H]1CN(C)C(=O)Nc1ccc(C(F)(F)F)cc1`, the cytotoxicity call was “inactive”.
For the compound `OCc1cc2c(F)cccc2s1`, the cytotoxicity call was “inactive”.
In the case of `O=C(C[C@H]1C[C@H]2c3cc(NC(=O)Nc4ccccc4F)ccc3O[C@H]2[C@@H](CO)O1)NCc1ccc(Oc2ccccc2)cc1`, the cytotoxicity call was “inactive”.
